Source: PubChem BioAssay AID360 (National Center for Advancing Translational Sciences (NCATS), 2006)
The campaign covered roughly 48,000 compounds. About 550 (1.1%) were called active. Another 4% or so got no clear call; they are omitted. Cut-off read from the data, not from the text of the source: active = potency below about 15 µM; inconclusive = mostly about 16 µM to 33 µM; inactive = weaker than that. The list shows a part of the results.

target: Lysosomal acid glucosylceramidase (Homo sapiens) (UniProt P04062); assay: Glucocerebrosidase; conditions: purified enzyme, resorufin glucoside fluorescence (screen aimed at inhibitors), 20 min; series mostly up to 77 µM;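 note: the screen sought inhibitors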
UniProt P04062, sequence (P04062 whole entry, looked up): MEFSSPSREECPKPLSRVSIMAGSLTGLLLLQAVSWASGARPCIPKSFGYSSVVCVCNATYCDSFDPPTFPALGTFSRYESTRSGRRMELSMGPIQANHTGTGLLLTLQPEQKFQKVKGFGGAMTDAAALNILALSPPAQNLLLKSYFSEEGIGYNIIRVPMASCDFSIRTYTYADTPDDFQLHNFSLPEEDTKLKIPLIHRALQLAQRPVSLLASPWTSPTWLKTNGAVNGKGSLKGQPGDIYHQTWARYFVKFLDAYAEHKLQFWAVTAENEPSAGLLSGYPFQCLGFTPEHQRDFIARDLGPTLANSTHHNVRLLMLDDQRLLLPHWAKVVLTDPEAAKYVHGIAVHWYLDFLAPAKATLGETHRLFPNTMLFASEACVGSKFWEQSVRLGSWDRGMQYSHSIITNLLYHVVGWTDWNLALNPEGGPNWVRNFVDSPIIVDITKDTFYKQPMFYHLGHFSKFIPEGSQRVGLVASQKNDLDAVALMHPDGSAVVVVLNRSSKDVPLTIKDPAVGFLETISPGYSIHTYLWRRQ
Method in brief: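 Normal human glucocerebrosidase (0.2 nM final) was assayed with resorufin β-D-glucopyranoside (30 uM final) in 50mM citric acid/KH2PO4, 10mM sodium taurocholate, 0.01% tween-20, pH 5.9. Compounds were titrated; fluorescence (Ex 548, Em 600) read after 20 min at RT.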
Potency is the fitted concentration of half-maximal effect.

Compound	Potency
CC(C)OC(=O)NCCOC(=O)Nc1cccc(Cl)c1	inactive: > 76.9 µM
O=C(c1cc2nc(C3CC3)cc(C(F)F)n2n1)N1CCOCC1	inactive: > 76.9 µM
COc1ccc(-n2c(=O)cc(N3CCOCC3)[nH]c2=O)cc1	inactive: > 76.9 µM
CC1(C)CC(=O)C2=C(C1)Oc1ncn(CCCO)c(=N)c1C2c1ccccc1 (stereo unspecified)	inactive
CCCn1c(SCC(=O)N2CCN(c3ccccc3)CC2)nc2ccccc2c1=O	inactive: > 76.9 µM
CCc1nc(-c2ccccc2O)n(-c2ccccc2)n1	inactive: > 76.9 µM
CCOC(=O)Nc1ccc(S(=O)(=O)NCc2ccccc2)cc1	inactive: > 76.9 µM
Cc1ccc(S(=O)(=O)NCC(=O)NC2CCCC2)cc1	inactive: > 76.9 µM
CCC(=O)N1CCc2cc(Br)cc(S(=O)(=O)CC(=O)OC)c21	inactive: > 76.9 µM
COC(=O)c1c(C)[nH]c(C)c1-c1ccccc1Cl	inactive: > 76.9 µM
Fc1ccc(OCc2nn3cnnc3s2)cc1	inactive: > 76.9 µM
O=C(CCCCn1c(=O)c2ccccc2n(CC(=O)NC2CCCC2)c1=O)NCc1ccco1	inactive: > 76.9 µM
O=C1CCCC/C1=C\Nc1ccc(O)cc1	inactive: > 76.9 µM
CCC(=O)Nc1c(C)nn(C(=O)CC)c1C	inactive: > 76.9 µM
c1nc2nc3c(c(N4CCOCC4)n2n1)CCCC3	inactive: > 76.9 µM
O=C(Nc1ccccc1)N1CCC(c2ccccc2)C1 (stereo unspecified)	inactive: > 76.9 µM
CS(=O)(=O)N(CC(=O)Nc1ccc2c(c1)OCCO2)c1ccc2c(c1)OCO2	inactive: > 76.9 µM
Cc1cc(C(=O)CSc2nnc(-c3ccco3)o2)c(C)n1CC1COc2ccccc2O1 (stereo unspecified)	inactive: > 76.9 µM
CC1CCCCN1CC(=O)Nc1sc2c(c1C#N)CCC2 (stereo unspecified)	inactive: > 76.9 µM
COCCCNC(=O)CN(c1cccc(Cl)c1C)S(C)(=O)=O	inactive: > 76.9 µM
O=C(COC(=O)c1n[nH]c2ccccc12)Nc1ccc(S(=O)(=O)N2CCCC2)cc1	inactive: > 76.9 µM
CC1CCc2c(sc(NC(=O)c3noc4c3CCCC4)c2C(N)=O)C1 (stereo unspecified)	inactive: > 76.9 µM
COC(=O)Nc1nnc(-c2ccccc2Cl)s1	inactive: > 76.9 µM

Compound	Potency
CCOC(=O)CSc1nc2cc(C(=O)NCc3ccco3)ccc2c(=O)n1C1CCCCC1	inactive: > 76.9 µM
Cc1cc(Oc2ccc(=O)n(C)n2)nc(Oc2ccc(=O)n(C)n2)n1	inactive: > 76.9 µM
Cc1ccc(NC(=O)CS(=O)CC(=O)Nc2ccc(N3CCOCC3)cc2)cc1Cl (stereo unspecified)	inactive: > 76.9 µM
CCCS(=O)(=O)N1CCc2cc(OC)c(OC)cc2C1	inactive: > 76.9 µM
CCC(=O)Nc1nonc1-c1nc2ccccc2n1Cc1ccccc1	inactive: > 76.9 µM
NC(=O)C1(N2CCCCC2)CCN(C(=O)c2cccn3c(=O)c4cc(Cl)ccc4nc23)CC1	inactive: > 76.9 µM
CCCS(=O)(=O)N1CCC(C(=O)NCCCOCC)CC1	inactive: > 76.9 µM
O=C(c1ccc2c(c1)OCO2)N1CCCC(c2ccccc2)C1 (stereo unspecified)	inactive: > 76.9 µM
O=C(Nc1ccc(Cl)cc1)Nc1ccc(N2CCOCC2)cc1	inactive: > 76.9 µM
COc1cc(C2C(C(=O)c3ccc(C)o3)=C(O)C(=O)N2Cc2cccnc2)ccc1O (stereo unspecified)	inactive: > 76.9 µM
O=S(=O)(Nc1nc2ccccc2s1)c1ccc(Br)s1	inactive: > 76.9 µM
O=C(c1cc(-c2ccc(Cl)c(Cl)c2)on1)N1CCCCC1	inactive: > 76.9 µM
COc1cccc(C(=O)N2CCCC(c3nc(-c4cccs4)no3)C2)c1 (stereo unspecified)	inactive: > 76.9 µM
COC(=O)c1cc(-c2cccc(OC)c2)n[nH]1	inactive: > 76.9 µM
O=C(C1CC1)N1CCc2cc(Br)cc(S(=O)(=O)N3CCOCC3)c21	inactive: > 76.9 µM
CCOC(=O)CSc1nnc(-c2ccc(S(=O)(=O)N3CCOCC3)cc2)n1-c1ccccc1	inactive: > 76.9 µM
CCOC(=O)c1cc2c(=O)n3ccccc3nc2n(CC2CCCO2)c1=NC(C)=O (stereo unspecified)	inactive: > 76.9 µM
CCc1nc2ccccc2n1CC(=O)N(C(C)CC)C1CCS(=O)(=O)C1 (stereo unspecified)	inactive: > 76.9 µM
Cc1cccc(NC(=O)c2sc3nc(-c4ccccc4)cn3c2C)n1	inactive: > 76.9 µM
CCOC(=O)c1nn(-c2sc(C(=O)OC)c(C)c2C(=O)OC)cc1O	inactive: > 76.9 µM
CN(C)CC(C)(C)NS(=O)(=O)c1ccc(Cl)cc1	inactive: > 76.9 µM
COC(=O)c1nnn(-c2nc(N3CCCCC3)nc(N3CCCCC3)n2)c1C	inactive: > 76.9 µM
COc1ccc(C2CC(=O)Nc3ccccc3S2(=O)=O)cc1OC (stereo unspecified)	inactive: > 76.9 µM

Compound	Potency
O=C(CCSc1nnc(-c2ccco2)o1)Nc1ccccc1	inactive: > 76.9 µM
O=c1c2ccccc2nnn1Cc1ccccn1	inactive: > 76.9 µM
c1nc(N2CCC3(CC2)OCCO3)c2[nH]cnc2n1	inactive: > 76.9 µM
CCOc1ccc(Nc2cc(C)nc(-n3nc(C)cc3C)n2)cc1	inactive: > 76.9 µM
COc1ccc(-c2csc(N(CC3CCCO3)C(=O)c3cccs3)n2)cc1 (stereo unspecified)	inactive: > 76.9 µM
Cc1ccccc1-n1c(=O)cc(N2CC(C)OC(C)C2)[nH]c1=O (stereo unspecified)	inactive: > 76.9 µM
COc1cc(N(C)C)c(NC(C)=O)cc1C(=O)O	inactive: > 76.9 µM
O=C(NCCCO)c1ccc2[nH]c3ccccc3c2c1	inactive: > 76.9 µM
COc1ccc2c(c1OC)C(=O)OC2CC(=O)c1ccc2c(c1)OCO2 (stereo unspecified)	inactive: > 76.9 µM
Cc1cc(C(=O)Nc2c(C)n(C)n(-c3ccccc3)c2=O)c(C)o1	inactive: > 76.9 µM
O=c1nc(N2CCOCC2)ccn1Cc1ccc(Br)cc1	inactive: > 76.9 µM
CCCCn1c(SCC(=O)Nc2cc(C)on2)nnc1-c1cccnc1	inactive: > 76.9 µM
O=C(Nc1ccc2oc(-c3ccccc3F)nc2c1)c1ccc2c(c1)OCCO2	inactive: > 76.9 µM
Cc1csc(SCC(=O)Nc2ccc(S(=O)(=O)N3CCCC3)cc2)n1	inactive: > 76.9 µM
Cc1ccccc1N1CCN(c2ncnc3c2cnn3Cc2ccc(Cl)cc2)CC1	inactive: > 76.9 µM
O=C(COc1ccccc1)NCCn1ccc2ccccc21	inactive: > 76.9 µM
COCCn1c(=NC(=O)c2ccc3c(c2)OCO3)c(C#N)cc2c(=O)n3cccc(C)c3nc21	inactive: > 76.9 µM
COCCCNC(=O)C1CCCN(C(=O)Nc2ccc(OC)cc2)C1 (stereo unspecified)	inactive: > 76.9 µM
CS(=O)(=O)N(CCc1ccccc1)CC(=O)NCc1ccccn1	inactive: > 76.9 µM
Cc1nn(Cc2ccc(C(=O)Nc3nccs3)cc2)c(C)c1Cl	active: 13.7 µM
COCCn1c(=N)c(C(=O)NCCc2ccc(OC)cc2)cc2c(=O)n3cccc(C)c3nc21	inactive: > 76.9 µM
O=C(CSc1ccc2c(c1)OCCO2)NCCN1C(=O)CSC1=O	inactive: > 76.9 µM
CC(C)NC(=O)C(C)n1cccc1C(=O)c1ccccc1 (stereo unspecified)	inactive: > 76.9 µM

Compound	Potency
Cc1ccc(-n2c(SCC(=O)NCc3ccco3)nc3sc(C)c(C)c3c2=O)cc1	inactive: > 76.9 µM
COc1ccc(Cn2c(=O)oc3ccc(C)cc32)cc1OC	inactive: > 76.9 µM
O=C(CSc1nnc(CNc2ccc(Cl)cc2)o1)Nc1nc2ccccc2s1	inactive: > 76.9 µM
CC1(C)CC(OC(=O)c2ccco2)CC(C)(C)N1O	inactive: > 76.9 µM
C=CCn1c(CCNC(=O)c2ccccc2F)nnc1SCC(=O)Nc1nc(C)cs1	inactive: > 76.9 µM
CCCS(=O)(=O)N1CCC(C(=O)N2CCCC2)CC1	inactive: > 76.9 µM
Cc1nn(Cc2ccc(F)cc2)c(C)c1NC(=O)c1cc(-c2ccc3c(c2)OCO3)on1	inactive: > 76.9 µM
Clc1ccc(Br)cc1-c1nc(-c2cccnc2)no1	inactive: > 76.9 µM
CC(C)Sc1nnc([C@@H]2CCCN2C(=O)OC(C)(C)C)o1	inactive: > 76.9 µM
CCOC(=O)N1CCC(NC(=O)CN2C(=O)C(CC)Oc3ccc(C)cc32)CC1 (stereo unspecified)	inactive: > 76.9 µM
Cn1nnnc1SCC(=O)Nc1ccccc1N1CCOCC1	inactive: > 76.9 µM
Cc1onc(-c2ccccc2)c1C(=O)OCC(=O)c1ccccc1	inactive: > 76.9 µM
O=C(c1ccco1)N1CCN(CC(=O)N2c3ccccc3CCc3ccccc32)CC1	inactive: > 76.9 µM
COc1ccc(N2CCN(C(=O)Cn3nnc(-c4cccs4)n3)CC2)cc1	inactive: > 76.9 µM
c1ccc(-c2nc3ccccc3o2)nc1	inactive: > 76.9 µM
CCS(=O)(=O)c1ccc(O)c(N2C(=O)C3C4C=CC(C4)C3C2=O)c1 (stereo unspecified)	inactive: > 76.9 µM
CCCCN1C2CCCC1CC(NC(=O)c1ccc(OC)c(OC)c1)C2 (stereo unspecified)	inactive: > 76.9 µM
CC(C)(C)NC(=O)c1ccc2c(c1)N(CC(=O)N1CCN(c3ccccc3F)CC1)C(=O)C(C)(C)O2	inactive: > 76.9 µM
CCn1c(SCC(=O)Nc2cc(NC(C)=O)ccc2OC)nnc1-c1ccccn1	inactive: > 76.9 µM
CC1Oc2ccccc2N(CC(=O)N(Cc2ccccc2)Cc2ccccn2)C1=O (stereo unspecified)	inactive: > 76.9 µM
O=C(c1ccc2nccnc2c1)N1CCN(Cc2ccc3c(c2)OCO3)CC1	inactive: > 76.9 µM
O=C(CC1(O)C(=O)N(C/C=C/c2ccccc2)c2ccccc21)c1ccccn1 (stereo unspecified)	inactive: > 76.9 µM
